# PubChem BioAssay AID686970 (National Center for Advancing Translational Sciences (NCATS), 2013)
# Hit rate of the full screen: of about 360,000 compounds, about 6,000 (1.7%) were called active. Inconclusive means that the source gave no clear call. Such entries were picked first, then a sample of the others. The call rests on the fitted dose curve; in most records, active means well fitted cell-killing curve with a large enough effect; inconclusive means small, poorly fitted or top-dose-only effect, or effect the other way; inactive means flat fitted curve, though single readings scatter. No potency is given beside an inconclusive call; the fits are too rough.
# Test: qHTS for induction of synthetic lethality in tumor cells producing 2HG: qHTS for the HT-1080-NT fibrosarcoma cell line;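 further: NT is the 2HG producing partner of a matched IDH1 knockdown line; nearly all actives have a fitted effect of over 55% in size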;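 on activity, negative = less viability: 0% = DMSO-treated cells and -100% = media-only wells without cells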
# Details: HT-1080-NT fibrosarcoma viability, CellTiter-Glo ATP luminescence, 48 h; activity, negative = less viability: at 46.1 µM (top of the series) unless noted
# Summary of the method: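 Luminescent CellTiter-Glo readout after 48 hours of compound exposure at 37 degrees C defined viability of HT-1080-NT cells. Activity was normalized to DMSO wells and cell-free media wells; concentration-response curves were fitted and assigned curve classes.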
# Potency means the concentration at half of the fitted maximal effect; tags describe the fitted curve by direction and shape.
Compound,Potency,"activity, negative = less viability"
CC(C)(C)C1CCc2c(sc(NC(=O)CSc3ncn[nH]3)c2C#N)C1 (centres undefined),active: 11.2 µM,–
CCC1Cc2[nH][nH]c(=O)c2C(CC)O1 (centres undefined),–,inactive: 12.4%
Cc1cc(C)cc(-n2ncc3c2CCCC3NC(=O)CN2CCCC2=O)c1 (centres undefined),–,inactive: 3.85%
Cc1ccc(-c2[nH]nc(N)c2N=Nc2cccc(Cl)c2C)cc1,"inconclusive [cytotoxic, single point]",–
CC(=N\NC(=O)c1cc(Br)ccc1O)/C(=N/O)C(=O)Nc1ccccc1,"inconclusive [cytotoxic, partial curve]",–
Cc1nc2sccn2c1-c1csc(NCc2ccccc2)n1,"inconclusive [cytotoxic, partial curve]",–
CCOc1ccc(N=C2NC(=O)S/C2=C\c2ccc(Cl)cc2)cc1,–,inactive: -5.07%
O=c1cc(C(F)(F)F)[nH]c2ccc(OC(F)(F)F)cc12,"inconclusive [cytotoxic, single point]",–
CCc1nc2oc(C(=O)c3ccccc3)c(N)c2c2c1COC(C)(C)C2,"inconclusive [rising, full curve, poor fit]",–
O=C(NCc1cccc(Cl)c1)C1Cc2c(-c3ccccc3Oc3ccccc3)ccnc2O1 (centres undefined),"inconclusive [cytotoxic, single point]",–
Cc1nnc(Sc2cc(NCCO)c([N+](=O)[O-])c3nonc23)s1,"inconclusive [cytotoxic, single point]",–
CC(=O)N1CCN(c2cc(N3CCc4ccccc4C3)c(F)cc2[N+](=O)[O-])CC1,"inconclusive [cytotoxic, single point]",–
Cc1ccccc1C(=O)OCc1nnc(-c2ccc(Cl)cc2)o1,"inconclusive [rising, single point]",–
CN1CCN(S(=O)(=O)c2ccc(NC(=O)Nc3cccc(Cl)c3)cc2)CC1,active: 20.6 µM,–
Cn1c2ccccc2c2cc([N+](=O)[O-])ccc21,"inconclusive [cytotoxic, single point]",–
CC(C)(C)c1ccc(OCc2ccc(C(=O)Nc3cccnc3)o2)cc1,"inconclusive [cytotoxic, partial curve]",–
COc1ccc(C(=O)NCCC2=CCCCC2)cc1OC1CCN(C(C)C)CC1,"inconclusive [cytotoxic, partial curve]",–
Cc1nc(S(=O)(=O)N(C)c2ccccc2)c(C#N)c(C)c1Cl,"inconclusive [cytotoxic, single point]",–
N#C/C(=C\c1cccc(Oc2ccccc2)c1)C(=O)N1CCOCC1,"inconclusive [cytotoxic, single point]",–
O=c1c(Sc2ccccc2)c(C(F)(F)F)[nH]n1-c1ccccc1,"inconclusive [cytotoxic, single point]",–
CCOc1cc(N2CCOCC2)c(OCC)cc1NS(=O)(=O)c1ccc(Cl)s1,"inconclusive [cytotoxic, full curve]",–
CN=C(Nc1ccc(C)c(C)c1)SC1CC(=O)N(c2ccc(OC)cc2)C1=O (centres undefined),"inconclusive [cytotoxic, single point]",–
Cc1ccc(C(C2C(=O)CC(C)(C)CC2=O)C2C(=O)CC(C)(C)CC2=O)s1,"inconclusive [cytotoxic, single point]",–

Compound,Potency,"activity, negative = less viability"
Cc1ccc(NC(=O)CSc2nnc(C)n2-c2ccccc2)cc1,"inconclusive [rising, full curve]",–
C[C@@H]1C[C@@H]2OC(=O)[C@]3(C)[C@H]2[C@@H](OC3(C)O)[C@]2(C)C(=O)C=C[C@H]12 (some centres undefined),–,inactive: -14%
COc1ccc(C)cc1NS(=O)(=O)c1ccc(-c2cnc(C3CC3)o2)cc1,"inconclusive [cytotoxic, full curve]",–
CCOc1ccc(/C=C/C(=O)c2cc(Br)ccc(=O)c2O)cc1,"inconclusive [cytotoxic, partial curve]",–
OC(CNc1ccnc2cc(Cl)ccc12)CNC1CCCCC1 (centres undefined),active: 20.6 µM,–
Cc1ccc(NC(=O)c2cc3c(s2)CCC3)cc1S(=O)(=O)N1CCOCC1,–,inactive: -11.3%
CCOC(=O)C1CCN(C(=O)CCCn2nc(CC)n3c(cc4occc43)c2=O)CC1,–,inactive: 2.44%
Cc1cc(S(=O)(=O)N2CCCc3ccccc32)ccc1-n1cnnn1,–,inactive: -0.0151%
O=C(COC(=O)c1ccc(O)cc1)Nc1ccc(N2CCCCC2)cc1,–,inactive: 0.138%
CCCCOc1ccc(C(=O)NO)cc1,"inconclusive [cytotoxic, single point]",–
COc1ccc(-c2cc(C3CCN(c4ccc(C(C)=O)cc4[N+](=O)[O-])CC3)[nH]n2)cc1,"inconclusive [cytotoxic, single point]",–
CCc1cc(=O)oc2cc3occ(-c4ccc(OC)c(F)c4)c3cc12,active: 5.17 µM,–
COc1cc(OC)cc(C(=O)NCC(=O)N2CCN(c3ccc(O)cc3)CC2)c1,"inconclusive [cytotoxic, single point]",–
CCOc1cc(N2CCOCC2)c(OCC)cc1NC(=O)COC(=O)c1cccc2ccccc12,–,inactive: 0.297%
CC(C)CCNC(=O)C(=O)NCc1ccccc1,"inconclusive [rising, single point]",–
C#CCN(C[C@H]1[C@H](OC(=O)NC2CC2)[C@H](OC(=O)NC2CC2)C[C@H]2C(=O)N(c3ccccc3)C(=O)[C@@H]12)S(=O)(=O)c1ccc(C)cc1,–,inactive: 1.43%
CCOC(=O)N1CCC(NC(=O)c2cc(C(=O)Nc3ccc(F)cc3F)ccc2CO)CC1,"inconclusive [rising, single point]",–
COCCCNc1nccn2ccnc12,–,inactive: 23.6%
Cc1ccc(OCC(=O)N/N=C/c2ccc3c(c2)OCO3)cc1C,"inconclusive [cytotoxic, single point]",–
Cc1nn(-c2ccccc2C(F)(F)F)c(=O)c2noc(C)c12,"inconclusive [rising, single point]",–
Cc1cccc(NS(=O)(=O)c2cc(C(=O)NCCC3=CCCCC3)ccc2Cl)c1,"inconclusive [cytotoxic, single point]",–
CCN(CC)CCSc1nnc2c3cc(C)ccc3n(Cc3ccccc3)c2n1,active: 16.4 µM,–
Cc1nc2c(C)cccc2cc1C(=O)N/N=C/c1ccc(N(C)C)cc1,"inconclusive [cytotoxic, single point]",–

Compound,Potency,"activity, negative = less viability"
Cc1cc(C)c2nc(NCCCNC(=S)NCCCN(C)C)c(C#N)cc2c1,"inconclusive [cytotoxic, single point]",–
Cc1cccc(NC(=O)c2n[nH]c([N+](=O)[O-])c2Br)c1C,"inconclusive [cytotoxic, single point]",–
C(=C\c1nccc2c1[nH]c1ccccc12)/c1ccccc1,"inconclusive [cytotoxic, single point]",–
CCCCCC(=O)Nc1nc(C)c(-c2csc(Nc3cc(Cl)ccc3C)n2)s1,"inconclusive [cytotoxic, single point]",–
Cc1ccc2nc(-c3ccccc3)c(CC3CCCCC3)n2c1,"inconclusive [cytotoxic, single point]",–
CC(C)c1cccc(C(C)C)c1OC(=O)[C@H]1OC(c2ccc(Br)cc2)=C[C@@H]1c1ccc(Br)cc1,"inconclusive [cytotoxic, single point]",–
O=C1COc2ccc(S(=O)(=O)CCC(=O)N3CCN(c4cccc(Cl)c4)CC3)cc2N1,"inconclusive [cytotoxic, single point]",–
NC(=O)NC(=O)COC(=O)c1ccc(Cl)c(S(=O)(=O)N(Cc2ccccc2)c2ccc(Cl)cc2)c1,"inconclusive [cytotoxic, single point]",–
Cc1cc(NS(=O)(=O)c2ccc(NC(=O)COc3ccc(Br)cc3)cc2)nc(C)n1,–,inactive: 1.93%
Cc1ccc(C(C(=O)NC2CCCCC2)N2CCN(C(=O)c3ccco3)CC2)cc1 (centres undefined),–,inactive: 7.14%
CCCCCC(=O)N/N=C/c1ccc([N+](=O)[O-])o1,"inconclusive [cytotoxic, single point]",–
Cc1ccc(SCC(=O)Nc2nccs2)cc1,–,inactive: 2.36%
Nc1ccc(C(=O)n2c3ccccc3c3ccccc32)cc1,"inconclusive [cytotoxic, full curve]",–
COc1cccc(NC(=O)CN(C)CC(=O)Nc2ccc(C)cc2Cl)c1,–,inactive: -13.6%
COC(=O)c1ccc(C(C(=O)NC2CCCCC2)N(Cc2ccccc2)C(=O)Cc2cccs2)cc1 (centres undefined),–,inactive: -1.92%
COc1cccc(N2CC(O)=C(c3ccccc3)C2=N)c1,–,inconclusive: 35.5%
O=C(O)CC1CCC(=C(Cl)Cl)C1 (centres undefined),"inconclusive [cytotoxic, single point]",–
CCCCC(=O)Nc1ccc(C(=O)NNC(=S)NC(=O)c2ccccc2[N+](=O)[O-])cc1,–,inactive: -5.31%
CS(=O)(=O)N(CC(=O)Nc1ccc(CC#N)cc1)c1ccc(C23CC4CC(CC(C4)C2)C3)cc1,"inconclusive [cytotoxic, single point]",–
COc1cc2nc(N3CCOCC3)nc(NC3CCN(Cc4ccccc4)CC3)c2cc1OC,"inconclusive [cytotoxic, single point]",–
COc1ccccc1N1CCN(S(=O)(=O)c2ccc3c(c2)NC(=O)CS3)CC1,"inconclusive [cytotoxic, single point]",–
C=CCN1CC(c2nc3ccccc3n2CCOc2ccccc2)CC1=O (centres undefined),–,inactive: -0.112%
CCc1ccc(S(=O)(=O)/N=C2/C=C(Sc3ncn[nH]3)C(=O)c3ccccc32)cc1,active: 5.8 µM,–
